Source: PubChem BioAssay AID686979 (National Center for Advancing Translational Sciences (NCATS), 2013)
About 50,000 (12%) of roughly 420,000 compounds were called active. The inconclusive results got no clear call from the source; some entries with a clear call stand among them for comparison. The call rests on the fitted dose curve; in most records, active means well fitted inhibition curve with a large enough effect; inconclusive means small, poorly fitted or top-dose-only effect; inactive means flat fitted curve, though single readings scatter. No potency is given beside an inconclusive call; the fits are too rough.

Test: qHTS for Inhibitors of human tyrosyl-DNA phosphodiesterase 1 (TDP1): qHTS in cells in presence of CPT; further: nearly all actives have a fitted effect of over 55% in size
Settings: chicken DT40 Tdp1-/-;hTDP1 cells + 20 nM CPT, ATP luminescence, 48 h; activity change, negative = growth inhibition: at 46.2 µM (top of the series) unless noted
Method in brief: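 Cell growth measured by CellTiter-Glo luminescence after a minimum 48 h, 37 C compound exposure with 20 nM CPT in Tdp1-knockout DT40 cells stably expressing hTDP1, seeded 400/well; qHTS titration format.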
On the % scale 0 is the no-effect control and ±100 the full control effect; potency means the concentration at half of the fitted maximal effect; tags describe the fitted curve by direction and shape.

Compound | Potency | activity change, negative = growth inhibition
Cc1ccc2c(C)c(C(=O)N(Cc3ccc(N(C)C)cc3)C3CCS(=O)(=O)C3)oc2c1 (centres undefined) | inconclusive [inhibitor, single point] | 
Cc1onc(-c2ccccc2Cl)c1C(=O)N[C@@H](C)c1ccccc1 | inactive | 
CC(C)(C)N1CC(c2nc3ccccc3n2CCOc2ccccc2)CC1=O (centres undefined) | inconclusive [inhibitor, single point] | 
CSCC[C@H](NC(=O)[C@@H]1Cc2ccccc2CN1)C(=O)NC[C@H]1CC[C@H](C(=O)O)CC1 | inactive | 
CC(C)(C)C(=O)N(Cc1ccc(Cl)cc1)c1cnccn1 | inconclusive [inhibitor, single point] | 
COc1ccc(NC(=O)C2CCN(c3nc4ccccc4nc3C(F)(F)F)CC2)cc1 | inactive | 
Cc1ccc(S(=O)(=O)N2C[C@H]3[C@H]4C(=O)N(Cc5ccccc5)C(=O)[C@H]4CC(=O)[C@H]3[C@@H]2c2ccccc2F)cc1 | inconclusive [inhibitor, single point] | 
COc1ccc2[nH]c(=O)c(C3c4cc(OC)c(OC)cc4CCN3C(=O)c3ccco3)cc2c1 (centres undefined) | inconclusive [inhibitor, partial curve] | 
CCc1ccc(NC(=O)CSc2ccc(-c3ccco3)nn2)cc1 | inconclusive [inhibitor, single point] | 
Cc1cc(=O)[nH]c2ccc([N+](=O)[O-])cc12 | inactive | 
Cc1ccc(-c2c[n+](CC(=O)Nc3nc(-c4ccccc4)cs3)c3n2CCC3)cc1 | active: 14.6 µM | 
COc1cc(NC(=O)Cn2ncc3c2-c2ccccc2OC3)cc(OC)c1OC | inconclusive [inhibitor, single point] | 
CCOc1ccccc1CNC(=O)c1cnc2c(-c3ccc(OCC)c(OCC)c3)c(C)nn2c1C | inconclusive [inhibitor, full curve] | 
O=C1Cc2cc(NS(=O)(=O)c3cc(F)ccc3F)cc3c2N1CCC3 | inconclusive [inhibitor, partial curve, poor fit] | 
O=C(Cn1cc(SCc2ccccc2)c2ccccc21)N1CCCCCC1 | inconclusive [inhibitor, single point] | 
CCOC(=O)c1c(NC(=O)/C=C/c2ccco2)sc(C)c1C | inactive | 
COc1cccc(CNc2ccc(N3CCCCC3)cc2)c1OC | active: 25.9 µM | 
COc1cc(NC(=O)c2cccc(Cl)c2)ccc1NC(=O)c1cccs1 | inconclusive [inhibitor, single point] | 
COc1ccc(C(=O)NC2CCN(CC(=O)N3CCCCC3)CC2)cc1 | inactive | 
COc1ccc(-c2cn3nc(N4CCC(C(=O)Nc5ccc(Cl)cc5C)CC4)sc3n2)cc1 | inconclusive [inhibitor, single point] | 
Cc1ccc(-c2nc3ncccn3c2NC2CCCCC2)o1 | inconclusive [inhibitor, single point] | 
O=c1c2cc(Br)ccc2nc(-c2cccc(C(F)(F)F)c2)n1O | active: 18.4 µM | 
COc1ccc(N(CC(=O)N2CCC(C(N)=O)CC2)S(=O)(=O)c2ccccc2)cc1 | inactive | 

Compound | Potency | activity change, negative = growth inhibition
CNC(=S)N(Cc1cccs1)Cc1cc2cc(OC)c(OC)cc2[nH]c1=O | inconclusive [inhibitor, single point] | 
Cc1ccc(S(=O)(=O)NN=C2CC3CCC2(C)C3(C)C)cc1 (centres undefined) | inconclusive [inhibitor, single point] | 
COc1cccc(N2CC(C)Cn3c2nc2c3c(=O)[nH]c(=O)n2C)c1 (centres undefined) |  | inconclusive: -33.8% [inhibitor]
NS(=O)(=O)c1ccc(CCN2C(=O)CCC2=O)cc1 | inactive | 
O=C(NN=Cc1cc([N+](=O)[O-])ccc1O)c1cccc2ccccc12 | active: 7.31 µM | 
Cc1nnc(SCCC(=O)Nc2nc(-c3ccccc3)ns2)s1 | inconclusive [inhibitor, single point] | 
Cc1ccc(CNC(=O)c2cc(=O)c3ccc(C)cc3o2)cc1 | inconclusive [inhibitor, single point] | 
c1ccc(CCn2nnc3ccccc32)cc1 | inconclusive [inhibitor, single point] | 
C/C(=N\Nc1cccc(C(=O)O)c1)c1cc2ccccc2o1 | inactive | 
CC(=O)NCCNc1nc(-c2cccnc2)nc2ccccc12 | inactive | 
Cc1ccc(-c2nc(SCC(=O)N3CCc4ccccc43)c3c(=O)n(C)c(=O)n(C)c3n2)cc1 | inactive | 
CCC(c1nnnn1-c1ccc2c(c1)OCCO2)N1CCN(c2ccc(C)cc2)CC1 (centres undefined) | inconclusive [inhibitor, single point] | 
OCCCCC#Cc1c(-c2ccsc2)sc2ccccc12 | inconclusive [inhibitor, single point] | 
Cc1c(C(=O)N2CCC2(C)C(=O)O)oc2ccccc12 (centres undefined) | inactive | 
CCn1ccc2cc(S(=O)(=O)N3CCC(C(=O)NCc4ccc(OC)cc4)CC3)ccc21 | inconclusive [inhibitor, single point] | 
CCOC(=O)C1CCC(CN(Cc2c(Cl)cccc2Cl)S(=O)(=O)c2ccc(Cl)cc2)CC1 (centres undefined) | inconclusive [inhibitor, single point] | 
CCOC(=O)Cc1csc(NC(=O)c2cc(=O)c3ccccc3o2)n1 | inconclusive [inhibitor, single point] | 
COc1c(S(=O)(=O)n2nc(C)cc2C)ccc(Cl)c1Cl | inconclusive [inhibitor, partial curve] | 
Cc1ccc2nc(-c3ccc(Cl)c(NC(=O)c4cccc([N+](=O)[O-])c4C)c3)oc2c1 | inconclusive [inhibitor, full curve, poor fit] | 
O=C(NCc1ccccc1)c1ccc2c(c1)N(Cc1cccc(Cl)c1)C(=O)c1ccccc1S2(=O)=O | inconclusive [inhibitor, single point] | 
O=C1N=C(N2CCCCC2)S/C1=C/C1=Cc2ccccc2OC1 | inconclusive [inhibitor, single point] | 
COc1cc(/C=C/c2nc3cc(Cl)ccc3c(=O)n2-c2cccc(C(F)(F)F)c2)cc(OC)c1OC | inconclusive [inhibitor, single point] | 
N/C(=N\OC(=O)N1CCOCC1)c1ccc(Br)cc1 | active: 20.6 µM | 

Compound | Potency | activity change, negative = growth inhibition
COc1ccc(C(C)(O)c2nc(-c3cccc(C#N)c3)cs2)cc1 (centres undefined) | active: 13 µM | 
COC(=O)C1C2CC3c4[nH]c5cc(OC)ccc5c4CCN3CC2CC(OC2CCCCO2)C1OC (centres undefined) | inconclusive [inhibitor, single point] | 
CNc1ccc2c3c(cccc13)C(=O)N(C)C2=O | inconclusive [inhibitor, single point] | 
Cc1cccc(N2CCN(C(=O)c3ccncc3)CC2)c1C | active: 20.6 µM | 
CCCCCCN1CCN(C2CN(Cc3ccc(C)cc3)S(=O)(=O)C2)CC1 (centres undefined) | active: 23.1 µM | 
CCCOc1cccc(C(=O)N(Cc2cccs2)C2CCS(=O)(=O)C2)c1 (centres undefined) | inconclusive [inhibitor, single point] | 
C=C1CCC(OC(C)=O)C2(C)CCC3C(C)C(=O)OC3C12O (centres undefined) | inactive | 
CCOC(=O)c1ccc(N2C(=O)CC(N3CCC(C(N)=O)(N4CCCCC4)CC3)C2=O)cc1 (centres undefined) | inconclusive [inhibitor, single point] | 
O=C(CCCN1C(=O)c2ccccc2C1=O)NCCN1C(=O)S/C(=C\c2cccs2)C1=O | inconclusive [inhibitor, single point] | 
OC(c1cccnc1)c1nc(/C=C/c2ccc(C(F)(F)F)cc2)cs1 (centres undefined) | active: 20.6 µM | 
CC(C)Nc1nc(NNc2nc(Cl)nc(NC(C)(C)C)n2)nc(NC(C)C)n1 | inconclusive [inhibitor, single point] | 
NS(=O)(=O)c1cc(C(=O)N2CCNC(=O)C2)ccc1Cl | inactive | 
Cc1ccc2oc(C(=O)N(C)Cc3ccon3)c(C)c2c1 | inactive | 
CN(C)S(=O)(=O)c1ccc(-c2ccccc2)cc1 | inconclusive [inhibitor, single point] | 
COc1ccc(Cn2c(SCC(=O)Nc3ccc(OC)cc3)nc3ccccc32)cc1 | active: 25.9 µM | 
CCOc1ccc(C(=O)CN2CCN(S(=O)(=O)c3ccc(OC)cc3)CC2)cc1 | active: 18.4 µM | 
CC1(C(=O)Nc2ccc(F)c(Cl)c2)Cc2c(-c3cccc(C(N)=O)c3)ccnc2O1 (centres undefined) | inconclusive [inhibitor, single point] | 
C/C=C(/C)C(=O)Nc1cccc(C2=NOC3(C2)C[C@H](C(N)=O)N(C(=O)c2ccc(Cl)cc2)C3)c1 (some centres undefined) | inconclusive [inhibitor, single point] | 
Cc1c(Cl)cccc1NC(=S)NNc1ncc(C(F)(F)F)cc1Cl | inconclusive [inhibitor, single point] | 
S=c1[nH]nc(-c2ccc3ccccc3n2)n1Cc1ccccc1 | inconclusive [inhibitor, single point] | 
COc1ccc(-c2n[nH]c(C)c2-c2cc(OC)ccc2O)cc1 | inconclusive [inhibitor, single point] | 
COc1cc(OC)c(N(C)C(=O)C2CCCN(c3ncnc4c3nc3n4CCCCC3)C2)cc1Cl (centres undefined) | inconclusive [inhibitor, single point] | 
O=P(C1=C(N2CCOCC2)/C(=C\c2ccccc2)CC1)(N1CCOCC1)N1CCOCC1 | inactive | 
